We go through 3 molecules from US20220372458A1 (PALLEON PHARMACEUTICALS, published 2022).

What is called Kd is the equilibrium constant for the complex coming apart. By koff is commonly meant the first-order rate constant of dissociation. As usually defined, the kon is a measure of how fast the partners come together.

Test [1] addresses T1, recombinant human PD-L1 (human, UniProt Q9NZQ7 fragment, limits assumed).
T1 construct: Used in the ForteBio Octet assays; also called PD-L1 antigen
Briefly: ForteBio Octet (BLI), recombinant human PD-L1; sensor format for the table not stated. (BLI is a label-free optical method that tracks binding on a fibre tip over time.)

Test [2] concerns the target human PD-L1 expressed on engineered CHO-K1 cells (human, UniProt Q9NZQ7). Briefly: cell-based or functional assay.
In test [3] the target is T1, recombinant human PD-L1. Briefly: ForteBio Octet (BLI), recombinant human PD-L1.
T1 sequence (Q9NZQ7 19-238 limits assumed): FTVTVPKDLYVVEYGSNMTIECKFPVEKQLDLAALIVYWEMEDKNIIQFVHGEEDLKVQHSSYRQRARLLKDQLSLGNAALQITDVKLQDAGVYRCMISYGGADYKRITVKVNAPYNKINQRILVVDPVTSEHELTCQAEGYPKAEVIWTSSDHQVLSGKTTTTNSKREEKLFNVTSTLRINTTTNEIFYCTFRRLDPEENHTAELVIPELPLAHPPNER

B1: Janus #2 (other)
light: QSALTQPASVSGSPGQSITISCTGTSSDVGGYNYVSWYQQHPGKAPKLMIYDVSNRPSGVSNRFSGSKSGNTASLTISGLQAEDEADYYCSSYTSSSTRVFGTGTKVTVLGQPKANPTVTLFPPSSEELQANKATLVCLISDFYPGAVTVAWKADGSPVKAGVETTKPSKQSNNKYAASSYLSLTPEQWKSHRSYSCQVTHEGSTVEKTVAPTECS
heavy: EVQLLESGGGLVQPGGSLRLSCAASGFTFSSYIMMWVRQAPGKGLEWVSSIYPSGGITFYADTVKGRFTISRDNSKNTLYLQMNSLRAEDTAVYYCARIKLGTVTTVDYWGQGTLVTVSSASTKGPSVFPLAPSSKSTSGGTAALGCLVKDYFPEPVTVSWNSGALTSGVHTFPAVLQSSGLYSLSSVVTVPSSSLGTQTYICNVNHKPSNTKVDKKV[human IgG1 Fc with T366Y (EU numbers) not given here]
chain: DASLPYLQKESVFQSGAHAYRIPALLYLPGQQSLLAFAEQRASKKDEHAELIVLRRGDYDAGTHQVQWQAQEVVAQARLDGHRSMNPCPLYDEQTGTLFLFFIAIPGQVTEQQQLQTRANVTRLCQVTSTDHGRTWSSPRDLTDAAIGPAYREWSTFAVGPGHCLQLHDRARSLVVPAYAYRKLHPKQRPIPSAFCFLSHDHGRTWARGHFVAQDTLECQVAEVETGEQRVVTLNARSHLRARVQAQSTNDGLDFQESQLVKKLVEPPPQGCQGSVISFPSPRSGPGSPAQWLLYTHPTHSWQRADLGAYLNPRPPAPEAWSEPVLLAKGSAAYSDLQSMGTGPDGSPLFGCLYEANDYEEIVFLMFTLKQAFPAEYLPQGGGGSGGGGS[human IgG1 Fc with Y407T (EU numbers) not given here]
Take B1: in the test with recombinant human PD-L1 [1], the dissociation constant Kd came out at 0.747 nM, the off-rate (koff) was 0.000212 s⁻¹ and the kon turned out to be 302000 M⁻¹ s⁻¹. In addition, in test [2], the “EC50 of fold induction of luminescence (curve fit), PD-1/PD-L1 Blockade Bioassay with PD-L1 CHO-K1 cells and PD-1 Jurkat NFAT-luciferase cells” value was found to be 1.05 µg/mL.

B2: Janus #1 (other)
light: B1 light
heavy: B1 heavy
chain: DASLPYLQKESVFQSGAHAYRIPALLYLPGQQSLLAFAEQRASKKDEHAELIVLRRGDYDAGTHQVQWQAQEVVAQARLDGHRSMNPCPLYDEQTGTLFLFFIAIPGQVTEQQQLQTRANVTRLCQVTSTDHGRTWSSPRDLTDAAIGPAYREWSTFAVGPGHCLQLHDRARSLVVPAYAYRKLHPKQRPIPSAFCFLSHDHGRTWARGHFVAQDTLECQVAEVETGEQRVVTLNARSHLRARVQAQSTNDGLDFQESQLVKKLVEPPPQGCQGSVISFPSPRSGPGSPAQWLLYTHPTHSWQRADLGAYLNPRPPAPEAWSEPVLLAKGSAAYSDLQSMGTGPDGSPLFGCLYEANDYEEIVFLMFTLKQAFPAEYLPQGGGGS[human IgG1 Fc with Y407T (EU numbers) not given here]
notes: Antibody sialidase conjugate with one avelumab arm (light chain plus heavy chain) and one sialidase-Fc arm; The sialidase is human Neu2 with M1D, V6Y, P62G, A93E, I187K and C332A, joined to Fc by a GGGGS linker; The two Fc domains carry knob (T366Y) / hole (Y407T) mutations; also called Ave-Janus; Janus Antibody Sialidase Conjugate (ASC)
As to B2, in the test with recombinant human PD-L1 [3], the Kd came to 1.28 nM, the koff was 0.000139 s⁻¹ and the kon was 129000 M⁻¹ s⁻¹.

B3: Bunk #1 (other)
light: B1 light
heavy: EVQLLESGGGLVQPGGSLRLSCAASGFTFSSYIMMWVRQAPGKGLEWVSSIYPSGGITFYADTVKGRFTISRDNSKNTLYLQMNSLRAEDTAVYYCARIKLGTVTTVDYWGQGTLVTVSSASTKGPSVFPLAPSSKSTSGGTAALGCLVKDYFPEPVTVSWNSGALTSGVHTFPAVLQSSGLYSLSSVVTVPSSSLGTQTYICNVNHKPSNTKVDKKV[human IgG1 Fc with T366Y (EU numbers) not given here]GGGGSGGGGSGGGGSQSALTQPASVSGSPGQSITISCTGTSSDVGGYNYVSWYQQHPGKAPKLMIYDVSNRPSGVSNRFSGSKSGNTASLTISGLQAEDEADYYCSSYTSSSTRVFGTGTKVTVLGQPKAGGGGSGGGGSGGGGSEVQLLESGGGLVQPGGSLRLSCAASGFTFSSYIMMWVRQAPGKGLEWVSSIYPSGGITFYADTVKGRFTISRDNSKNTLYLQMNSLRAEDTAVYYCARIKLGTVTTVDYWGQGTLVTVSS
chain: B2 chain
Consider B3, for which the “EC50 of fold induction of luminescence (curve fit), PD-1/PD-L1 Blockade Bioassay with PD-L1 CHO-K1 cells and PD-1 Jurkat NFAT-luciferase cells” value in test [2] amounted to 1.13 µg/mL.
